Measurements: the supplement of paper PMC11417369
Some of the results follow.

Each sequence was assayed on PfHDP1 homeodomain (GST-tagged) (assay: gcPBM binding intensity (ln(normalized median fluorescence intensity)); higher = stronger DNA binding).
In short: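 GST-tagged P. falciparum DNA-binding domains, expressed in E. coli (about 25 μg on average), were applied for 1 h to an Agilent 4 × 180k array of primer-extended double-stranded 36-bp intergenic genomic probes plus negative controls. The binding buffer was 1× PBS with 1% milk, 0.2 mg/ml BSA, 0.5% salmon testes DNA and 0.03% Triton X-100. Bound protein was detected with Alexa488 anti-GST antibody and scanned at 488 nm. Binding intensity is the highest Masliner-normalised natural-log median intensity across replicate spots of either probe orientation.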

| Sequence | gcPBM binding intensity (ln) |
| --- | --- |
| TTTTTTTTTTATTCTTCACACATTTCCAATAAAAAA [CACACA_site5601] | 6.82 |
| GTTATTATATATATGTGTACTTAAAAATTTTATGTC [XGTACX_site6084] | 7 |
| TATAACAAAAAAAAATAAAAAATAAAACTATATATA [CACACA_negctrl_site504] | 6.32 |
| ATCAAAATTGTCATTACACACCTTTATTTTTATAAT [CACACA_site5071] | 6.84 |
| AAGAAAAAGAATAACCTTATTTCTATATACTAATTT [TGCATGCA_negctrl_site477] | 5.76 |
| TTTGTTCTTTTTGAAGTGCACTGAAATATAACAAAA | 10.9 |
| AAAAAAACACACACATATATATATATATATATATAT [GTGCAC_negctrl_site498] | 9.43 |
| TGTTTTATTTATTAAGCACACGCGATTTAAAAAATA [CACACA_site981] | 6.18 |
| TTCATATAATTCATCTGTACATATTGATAGTATGCA [XGTACX_site6386] | 6.29 |
| TCAAATGTGTAATCTTGTACACATTAAAAGAAAAAA [XGTACX_site8822] | 6.6 |
| AATAATATATGGACATGTACATAATATATATTTTTT [XGTACX_site312] | 6.39 |
| TATGTATTAATGAGAACATGCAAAATAATAAACAAT [TGCATGCA_site362] | 7.17 |
| ATATATCAAATAGACAAACACACAAAGGAAGAGTGA [CACACA_site3922] | 6.92 |
| CACAGACACGGACACACACACACACCCAGACACATA [CACACA_site4357] | 6.79 |
| CATATACACGAACACACACACACACGCACAAAAAAA [CACACA_site6376] | 7.99 |
| ATATATATATATATATGTACATATGTCAACTGTCTA [XGTACX_site8636] | 9.26 |
| CATACATACAAACACACACACATATATATACATACA [CACACA_site852] | 7.15 |
| TTAAATAATTCTTTTAGTACACACGAATAAGCAGAT [XGTACX_site623] | 6.72 |
| TAATATATTAATATATGTACGTATTTTTATTAATAT [XGTACX_site5346] | 6.5 |

| Sequence | gcPBM binding intensity (ln) |
| --- | --- |
| TATCTTATATATAAGTGTACGCAGATTCTTACGATA [XGTACX_site6058] | 6.17 |
| ATAATTAATGATGTATGTACGGAATTTATATATTTG [XGTACX_site5685] | 6.33 |
| GTATACATATTTATAATAATAAATGTCTTATATTTT [CACACA_negctrl_site688] | 6.31 |
| ATAGTAATAGAATGATTGCACTTAAATTTTCCCTCT | 7.86 |
| TGTTATTCTACATATACACACAAATAACAATTTAAA [CACACA_site1824] | 6.81 |
| AAAAAAAAAAAGAACACACACAGTGCACATTCGGTG [CACACA_site788] | 9.85 |
| AATACAAAAAAAGGTACACACATAATATATTTATTA [CACACA_site2628] | 6.46 |
| TTAACTTTTTTATATGCACACATAAACAAGGATATA [CACACA_site8932] | 10.1 |
| CTAATTGTGTATACCTGTACATATATATATATATAT [XGTACX_site416] | 9.43 |
| TTTCCCTCAAATAAAGTGCATTATGATTTTAATTTA | 8.15 |
| ATGTATTTATTTTAACGTACAAGATATTATTATTAT [XGTACX_site4609] | 6.21 |
| AAATTATATATGATGTGTACATAAATATATACACAT [XGTACX_site8761] | 6.82 |
| TTATTATTCAAGAGGAGTACATTATGTGTATAATAT [XGTACX_site4995] | 7.85 |
| TATATTTAGAGAGAGACACACAAAGGGACTTACACA [CACACA_site2545] | 6.67 |
| ATATGGCATATTTGTATTATACATACATATGTATCT [TGCATGCA_negctrl_site562] | 6.58 |
| AAATTATAATATAATACACACATAAAAAAAAAAAAA [CACACA_site7] | 6.51 |
| TTTGTTTGGTTTTGGTGTACTTTTTTTTTTTTTTCT [XGTACX_site2050] | 6.84 |
| GAATTATAAGAATAAACACACAAGCTTAAAAAAAAA [CACACA_site1204] | 6.28 |
| AGAATTCAACAATGTTGTACATACACACACACAAAA [XGTACX_site5035] | 7.23 |

| Sequence | gcPBM binding intensity (ln) |
| --- | --- |
| TTTCTTTTTTCACGTGCATGCCATTTAAGTATTAAT [TGCATGCA_site651] | 8.07 |
| ACTAAACTTATATGTACACACATATAACATTAATTT [CACACA_site2258] | 6.67 |
| ACATATGTATAATATGCACACGTCATTTTCCCCTTA [CACACA_site5194] | 9.78 |
| TTATTATTTGGTTATAGTACATAATATAATATATAT [XGTACX_site6911] | 6.3 |
| TATATATATATGTATGCATGTTGTTTTTTATTTAAT [TGCATGCA_site343] | 8.94 |
| CTATATTTCGTTGGACGTACAAATGTGATAATTAGG [XGTACX_site3232] | 6.55 |
| ATACGAAGAAATGTTCATTTATTTCGAACATTTAAT [CACACA_negctrl_site1481] | 6.05 |
| AATATAATATAATATAGTACGTAAAAATATTATACA [XGTACX_site2170] | 6.57 |
| TTTTTCATAAAACACACACACAAAAATAATGTGGAA [CACACA_site3687] | 6.56 |
| GTATTAATATATAATTGTACTTTTTTTTTTTTTTTT [XGTACX_site4369] | 6.3 |
| AAAAAAAACGGACACACACACATTCAATATAAAACA [CACACA_site4189] | 6.78 |
| TTCACATGAAGAATTAAAATAAAACTAGGAAATTAA [CACACA_negctrl_site1047] | 6.18 |
| TTTTTATATTTTACATGTACATAAATATATTATATA [XGTACX_site958] | 6.46 |
| AATAATGAATTGAAATGTACATATTTTTATTAATAC [XGTACX_site8899] | 6.36 |
| ATCACCAAATGGGCTATACAACAATGAGAAATGGTA [CACACA_negctrl_site48] | 6.55 |
| TGTGTATATCGATAAAGTACATTTGAAAAGTGACTT [XGTACX_site6957] | 6.33 |
| GTAATATGTATCCATACACACATACAGTTTATTTGC [CACACA_site6540] | 6.54 |
| TCCACTTAACTCAATTGTACAAAAATAAAAATTAAA [XGTACX_site855] | 6.45 |
| TTTTATGCGCAATAAGTGCATTTAAAATATATATAT | 9.25 |
